{"source": "PubChem BioAssay AID485344", "about": "(National Center for Advancing Translational Sciences (NCATS), 2010)", "note": "The campaign covered roughly 340,000 compounds. About 6,900 (2%) were called active. No stated cut-off is given here; in the data, active means inhibition above about 30%; inactive means below that, where a call was filed. The list shows a part of the results, in another mix than the full data. The source gives no active or inactive call for entries shown without one. Where a structure was tested more than once in an assay, its records may differ in their call.", "data": [{"target": "D(2) dopamine receptor (Homo sapiens) (UniProt P14416)", "sequence (P14416 whole entry, looked up)": "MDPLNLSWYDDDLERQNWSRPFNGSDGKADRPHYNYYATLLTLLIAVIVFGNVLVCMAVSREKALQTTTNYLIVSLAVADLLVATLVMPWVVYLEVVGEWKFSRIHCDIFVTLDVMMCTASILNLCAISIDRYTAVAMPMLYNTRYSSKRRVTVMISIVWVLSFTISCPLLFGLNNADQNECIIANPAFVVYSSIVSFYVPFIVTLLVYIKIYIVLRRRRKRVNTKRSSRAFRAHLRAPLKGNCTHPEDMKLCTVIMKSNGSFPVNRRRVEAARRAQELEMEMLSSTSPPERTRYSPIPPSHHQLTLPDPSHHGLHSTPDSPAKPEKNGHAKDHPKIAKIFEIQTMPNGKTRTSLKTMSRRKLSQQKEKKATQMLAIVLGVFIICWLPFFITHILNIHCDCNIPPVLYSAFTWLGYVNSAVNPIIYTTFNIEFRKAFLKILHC", "experiment": "HTS Assay for Allosteric Antagonists of the Human D2 Dopamine Receptor: Primary Screen for Antagonists; further: 0% is about no effect", "details": "HEK293 TREx D2 cells, calcium flux, dopamine EC80; at 10 µM; stronger effect = higher value", "in_short": "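Calcium flux kinetic readout in an inducible HEK293 TREx D2 line plated overnight at 30 C. After 180 s compound exposure, an EC80 dopamine challenge follows with another 180 s kinetic read to detect antagonism.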", "values": [{"compound": "CCOC(=O)c1c(NC(=O)c2nc(SCC)ncc2Cl)sc(C(C)=O)c1C", "inhibition": "12.5%"}, {"compound": "CCOC(=O)c1ccc(N2CCN(c3cccc(OC)c3)CC2)c(NC(=O)Nc2ccc(OCC)cc2)c1", "inhibition": "-0.75%"}, {"compound": "O=C(O)c1ccc(CNCc2ccc(Cl)cc2)s1", "inhibition": "4.17%"}, {"compound": "Cc1ccc2nc(Nc3cccc(Cl)c3C)c(-n3nc(C)cc3C)nc2c1", "inhibition": "12.2%"}, {"compound": "Cc1ccccc1NC(=O)Cn1c(SCC(=O)Nc2ccc(F)cc2)nc2ccccc21", "inhibition": "-28.6%"}, {"compound": "CCCC(=O)Nc1ccc2c(c1)nc(CCN1CCN(c3ccccn3)CC1)n2C", "inhibition": "active: 46.8%"}, {"compound": "OC(COc1ccc(F)cc1)CN1CCN(c2ccccc2F)CC1", "note": "(stereo unspecified)", "inhibition": "active: 86.9%"}, {"compound": "Cc1ccc(-c2nc3cnccn3c2Nc2ccc3c(c2)OCO3)o1", "inhibition": "active: 35.5%"}, {"compound": "COc1cc(CNC(=O)c2ccc3c(c2)N(C)C(=O)C2CCCCN32)cc(OC)c1OC", "note": "(stereo unspecified)", "inhibition": "4.41%"}, {"compound": "COC(=O)c1cc2sc(C)cc2n1CC(=O)Nc1ccc(C)c(C)c1", "inhibition": "-11.4%"}, {"compound": "CCc1ccc(NC(=O)CN2CCCN(Cc3cccc(Cl)c3)S2(=O)=O)cc1", "inhibition": "-2.89%"}, {"compound": "CCOc1ccc(NC(=O)c2cc(S(=O)(=O)N3CCCCCC3)cn2C)cc1", "inhibition": "-18.2%"}, {"compound": "Cc1c2cnn(-c3ccccc3)c(=O)c2c(C)n1CC(=O)NCCc1ccc(Cl)cc1", "inhibition": "4.03%"}, {"compound": "COc1ccc2c(c1)c1c(c(=O)n(-c3ccc(F)c(Cl)c3)c(=O)n1CC(=O)N1CCCC1)n2C", "inhibition": "-3.92%"}, {"compound": "Cc1ccc(-n2c(=O)c3c4c(sc3n(CC(=O)c3ccc(Cl)cc3)c2=O)CCC4)cc1C", "inhibition": "1.74%"}, {"compound": "CC(=O)N1c2ccc(S(=O)(=O)NCC3CCC(C(=O)Nc4ccc(C)cc4)CC3)cc2CC1C", "note": "(stereo unspecified)", "inhibition": "0.434%"}, {"compound": "CN(Cc1ccco1)C(=O)c1ccc2c(c1)N(Cc1ccccc1F)C(=O)c1ccccc1S2", "inhibition": "-3.71%"}, {"compound": "COCCn1c(SCc2nc3sc(C(=O)OC)c(C)c3c(=O)[nH]2)nc2ccccc21", "inhibition": "active: 30.6%"}, {"compound": "Cc1cc(C(=O)COC(=O)Cn2cnc3c2c(=O)n(C)c(=O)n3C)c(C)n1C", "inhibition": "active: 45%"}, {"compound": "COc1ccccc1-c1nnc(SCC(=O)Nc2ccccc2F)o1", "inhibition": "6.18%"}, {"compound": "CCC1CN(C(=O)N2CCC(C(=O)N3CCN(c4cccc(C)c4C)CC3)CC2)c2ccccc2O1", "note": "(stereo unspecified)", "inhibition": "-16.5%"}, {"compound": "Cc1ccc(Cl)cc1NC(=O)CCC(=O)N1CC(C)Sc2ccccc21", "note": "(stereo unspecified)", "inhibition": "0.437%"}, {"compound": "O=C(NCCc1ccc(Cl)cc1)C1CCN(c2ncnc3c2nc2n3CCCCC2)CC1", "inhibition": "10%"}, {"compound": "COC(=O)c1ccsc1NC(=O)CS(=O)(=O)c1ccccc1", "inhibition": "active: 30.6%"}, {"compound": "O=C(CSc1nnc(-c2cccc(Cl)c2)o1)N1CCc2ccccc21", "inhibition": "0.602%"}, {"compound": "COc1cc(C(=O)OC(C)CN2CCOCC2)cc(OC)c1OC", "note": "(stereo unspecified)", "inhibition": "active: 40%"}, {"compound": "Cc1ccn2c(Nc3ccc(C(C)C)cc3)c(-c3cccs3)nc2c1", "inhibition": "8.07%"}, {"compound": "COc1ccc(C2C=C(c3cccc(OC)c3)Nc3c(C(=O)Nc4ccccc4)cnn32)cc1", "note": "(stereo unspecified)", "inhibition": "-18.5%"}, {"compound": "O=C(Nc1ccc2oc(-c3ccc(O)c(Br)c3)nc2c1)c1cc2ccccc2o1", "inhibition": "2.12%"}, {"compound": "CC(=O)Nc1cccc(NC(=O)CN2C(=O)CCSc3ccccc32)c1", "inhibition": "-9.24%"}, {"compound": "O=c1[nH]c(NNC(=S)NC2CCCCC2)nc2c1C1(CCCC1)Cc1ccccc1-2", "inhibition": "active: 38.2%"}, {"compound": "Cc1nc2nc(NC(=O)c3ccccc3F)[nH]n2c(=O)c1Cl", "inhibition": "-13.9%"}, {"compound": "CC(C)CN(CCCNC(=O)c1cc(=O)[nH]c2ccc(S(=O)(=O)N3CCCCCC3)cc12)CC(C)C", "inhibition": "-3.53%"}, {"compound": "CC(=O)N1c2nc(C(C)C)nn2C2(CCCCC2)[C@@H]2CCCC[C@@H]21", "inhibition": "0.337%"}, {"compound": "Cc1nn(-c2ccc(F)cc2)c(-n2cccc2)c1C(=O)N1CCN(c2ccc(F)cc2)CC1", "inhibition": "0.168%"}, {"compound": "CNC[C@H](O)c1cccc(O)c1", "inhibition": "active: 90.9%"}, {"compound": "COc1ccc(NC(=O)c2nnn(Cc3ccccc3C)c2N)c(OC)c1", "inhibition": "7.41%"}, {"compound": "Cc1ccc(C(=O)Nc2c(-c3ccccc3)nc3ccccn23)cc1C", "inhibition": "-7.46%"}, {"compound": "O=C(CSc1ccc(-c2ccccn2)nn1)Nc1ccc(F)c(F)c1", "inhibition": "1.37%"}, {"compound": "CN(C)CCNC(=O)C1CCN(c2nc3ccccc3[nH]2)CC1", "inhibition": "-20.7%"}, {"compound": "COc1ccc(NC(=O)Nc2nnc(N3CCCCCC3)s2)cc1", "inhibition": "-0.677%"}, {"compound": "Cc1ccc(NC(=O)c2nc(S(C)(=O)=O)ncc2N(Cc2ccccc2)Cc2ccco2)c(C)c1", "inhibition": "10.1%"}, {"compound": "Cc1c(NC(=O)c2cc([N+](=O)[O-])ccc2N2CCOCC2)cccc1-c1nc2ccccc2o1", "inhibition": "-9.54%"}, {"compound": "Cc1ccc(C2CC(=O)N(Cc3ccccc3F)c3c2c(C)nn3-c2nc(C)cc(C)n2)cc1", "note": "(stereo unspecified)", "inhibition": "17%"}, {"compound": "CCn1cc(C(=O)N2CCN(c3cccc(Cl)c3)CC2)c(=O)c2cc(S(=O)(=O)N3CCOCC3)ccc21", "inhibition": "7.84%"}, {"compound": "Cc1ccc(Cc2nc3ccccc3nc2SCC(=O)N2CCc3ccccc32)cc1", "inhibition": "6.37%"}, {"compound": "COc1cc(OC)c(NC(=O)c2c(C)oc3ncn(C)c(=O)c23)cc1Cl", "inhibition": "12.7%"}, {"compound": "CCOc1ccc(CCNC(=O)CCc2c(C)nc3c(c(C)nn3-c3ccccc3)c2C)cc1OCC", "inhibition": "-4.34%"}, {"compound": "CCOc1ccc(NC(=O)c2ccc(NC(=O)CCS(=O)(=O)c3cccs3)cc2)cc1", "inhibition": "-14.4%"}, {"compound": "Oc1ccccc1Nc1nc(-c2ccccc2)c2cc(Cl)ccc2n1", "inhibition": "-11.3%"}, {"compound": "O=C(CSc1nc2nccnc2c(=O)n1CCc1c[nH]c2ccccc12)Nc1ccccc1F", "inhibition": "-9.95%"}, {"compound": "Cc1cccc(OCCCC(=O)Nc2sc3c(c2C(N)=O)CCC(C)C3)c1", "note": "(stereo unspecified)", "inhibition": "7.39%"}, {"compound": "FC(F)(F)c1cccc(N2CCN(Cc3ccoc3)CC2)c1", "inhibition": "active: 103%"}, {"compound": "COc1ccc2c(CNCC(C)c3ccccc3)c(C(=O)O)n(Cc3ccc(F)cc3Cl)c2c1", "note": "(stereo unspecified)", "inhibition": "-0.535%"}, {"compound": "O=C1CS(=O)(=O)C2(C(=O)N(Cc3cccc(F)c3)c3ccccc32)N1c1ccccc1", "note": "(stereo unspecified)", "inhibition": "3.04%"}, {"compound": "COc1ccc(/C=C(\\C#N)c2nc(-c3cc(Cl)ccc3OC)cs2)cc1", "inhibition": "8.03%"}, {"compound": "CC1CCN(S(=O)(=O)c2ccc3c(c2)N(CC(=O)NCc2ccccc2)C(=O)CO3)CC1", "inhibition": "18.6%"}, {"compound": "Cc1[nH]n2c(=O)c3c(nc2c1-c1ccc(F)cc1)CCCC3", "inhibition": "active: 35.6%"}, {"compound": "COC(=O)c1ccc(Cl)cc1NC(=O)N1CC=C(c2c[nH]c3ccccc23)CC1", "inhibition": "-4.91%"}, {"compound": "O=C(Cn1ncc2c(=O)oc3ccccc3c21)Nc1cc(F)ccc1F", "inhibition": "-1.07%"}, {"compound": "COc1ccc(N2CCN(C(=O)c3cc4c(-c5ccccc5F)nn(C)c4s3)CC2)cc1", "inhibition": "4.23%"}]}]}
